PubChem BioAssay (Tox21)
Several values for one entry are separate records, joined by “and”; a condition that tells them apart may be missing. Identical values can stand only once. Activity calls are given as the source filed them. Unless noted, calls follow the shape of the dose curve; as a rule, active = well fitted curve in the direction sought with a large enough effect in the repeat runs; inconclusive = weak or mixed curves; inactive = no such curve, though single readings can be large; an effect the other way counts as inactive or inconclusive.

Tests used:
[1] = qHTS assay for identifying genotoxic compounds that show differential cytotoxicity against isogenic chicken DT40 cell lines with known DNA damage response pathways - wild type cell line (AID 743012); details: DT40 wild type chicken cells viability, CellTiter-Glo, 40 h; activity change, negative = cytotoxicity: at 68.4 µM (top of the series) unless noted; also: nearly all actives have a fitted effect of over 60% in size; also: potency is read from the fitted curve at half-maximal effect; as to activity change, negative = cytotoxicity: % is scaled to controls: 0 for no effect and ±100 for the full control effect
In short: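 Viability of DNA repair-proficient chicken DT40 cells was assessed by CellTiter-Glo luminescence following 40 h compound exposure at 37 C/5% CO2.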

[2] = qHTS assay to identify small molecule antagonists of the androgen receptor (AR) signaling pathway - cell viability counter screen (AID 743033; also: nearly all actives have a fitted effect of over 45% in size; also: potency is read from the fitted curve at half-maximal effect); details: AR-bla HEK293 viability, CellTiter-Glo luminescence, 16 h; activity change, negative = cytotoxicity: at 58.5 µM (top of the series) unless noted
[3] = biological target: Androgen receptor (Homo sapiens) (UniProt P10275); assay: qHTS assay to identify small molecule antagonists of the androgen receptor (AR) signaling pathway (AID 743035; active = well fitted inhibition curve with a large enough effect in the signal ratio in the repeat runs, not every such curve was filed as active; inconclusive = weak or mixed curves, or effect the other way; inactive = no such curve, though single readings can be large or run the other way; the % refers to the signal ratio; also: % is scaled to controls: 0 for no effect and ±100 for the full control effect); details: HEK293 AR-UAS-bla, R1881-stimulated, beta-lactamase FRET, 16 h; activity change, negative = inhibition: at 58.5 µM (top of the series) unless noted
In short: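 Reporter HEK293 cells were exposed to compounds and R1881 overnight (16 h, 37C); beta-lactamase activity was then quantified by FRET fluorescence.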

[4] = biological target: Androgen receptor (Homo sapiens) (UniProt P10275); assay: qHTS assay to identify small molecule antagonists of the androgen receptor (AR) signaling pathway using the MDA cell line (AID 743042; also: potency is read from the fitted curve at half-maximal effect; nearly all actives have a fitted effect of over 55% in size)
In short: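 MDA-kb2 cells (human breast carcinoma, stably carrying an MMTV-luciferase reporter responsive to AR and GR) were plated at 3,000 cells/well and preincubated 5 hr at 37C, then given compound plus R1881 agonist for 16 h. ONE-Glo luminescence was read.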

[5] = qHTS assay to identify small molecule antagonists of the thyroid receptor (TR) signaling pathway (AID 743065); also: nearly all actives have a fitted effect of over 55% in size; also: potency is read from the fitted curve at half-maximal effect
In short: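 GH3.TRE-Luc rat pituitary cells carrying two TR response elements driving luciferase were plated for 4 h, given compound plus 1 nM T3 (final), and incubated 23.5 h at 37 C. ONE-Glo luminescence measured reporter inhibition; CellTiter-Fluor fluorescence tracked cytotoxicity.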

[6] = biological target: Estrogen receptor (Homo sapiens) (UniProt P03372); assay: qHTS assay to identify small molecule antagonists of the estrogen receptor alpha (ER-alpha) signaling pathway (AID 743069; active = well fitted curve in the direction sought with a large enough effect in the signal ratio in the repeat runs, not every such curve was filed as active; inconclusive = weak or mixed curves, or effect the other way; inactive = no such curve, though single readings can be large or run the other way; the % refers to the signal ratio; also: potency is read from the fitted curve at half-maximal effect); details: HEK293 ER-alpha-UAS-bla, beta-lactamase ratio, antagonist mode; activity, negative = inhibition: at 69.4 µM (top of the series) unless noted
In short: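 A 17beta-estradiol challenge was applied right after compound transfer to ER-alpha-UAS-bla HEK293 cells previously kept in charcoal-stripped serum. Plates stood 18 hr at 37C and 5% CO2; fluorescence was read following 2 hr FRET substrate loading at room temperature.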

[7] = biological target: Estrogen receptor (Homo sapiens) (UniProt P03372); assay: qHTS assay to identify small molecule agonists of the estrogen receptor alpha (ER-alpha) signaling pathway using the BG1 cell line (AID 743079); details: BG1Luc4E2 cells, ERE-luciferase agonist, 22 h; activation: at 70.3 µM (top of the series) unless noted; also: nearly all actives have a fitted effect of over 20% in size; also: potency is read from the fitted curve at half-maximal effect
[8] = qHTS assay to identify small molecule antagonists of the estrogen receptor alpha (ER-alpha) signaling pathway using the BG1 cell line - cell viability counter screen (AID 743081); details: BG1Luc4E2 viability, CellTiter-Fluor, 22 h; activity change, negative = cytotoxicity: at 70.3 µM (top of the series) unless noted;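 also: compound given together with 17beta-estradiol as the ER stimulus; potency is read from the fitted curve at half-maximal effect; nearly all actives have a fitted effect of over 45% in size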
[9] = qHTS assay for identifying genotoxic compounds that show differential cytotoxicity against isogenic chicken DT40 cell lines with known DNA damage response pathways - Rad54/Ku70 mutant cell line (AID 743015); details: DT40 Rad54/Ku70 mutant viability, CellTiter-Glo, 40 h; activity change, negative = cytotoxicity: at 66.8 µM (top of the series); also: nearly all actives have a fitted effect of over 60% in size; also: potency is read from the fitted curve at half-maximal effect; as to activity change, negative = cytotoxicity: % is scaled to controls: 0 for no effect and ±100 for the full control effect
[10] = qHTS assay to identify small molecule antagonists of the androgen receptor (AR) signaling pathway using the MDA cell line - cell viability counter screen (AID 743041; also: nearly all actives have a fitted effect of over 45% in size; also: potency is read from the fitted curve at half-maximal effect; as to viability change, negative = cytotoxic: % is scaled to controls: 0 for no effect and ±100 for the full control effect); details: MDA-kb2 viability, CellTiter-Fluor, 16 h, cells co-treated with R1881 androgen agonist; viability change, negative = cytotoxic: at 70.3 µM (top of the series) unless noted
In short: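 In this qHTS counter assay, fluorescence intensity after CellTiter-Fluor addition indicated viability of MDA-kb2 AR-luc cells given compounds and R1881 for 16 h at 37C.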

[11] = system: thyroid hormone receptor (rat, GH3 cells); assay: qHTS assay to identify small molecule agonists of the thyroid receptor (TR) signaling pathway (AID 743066; calls by dose curve; also: potency is read from the fitted curve at half-maximal effect); details: GH3.TRE-Luc cells, TR agonist luciferase, 24 h; activation: at 83.9 µM (top of the series) unless noted
[12] = qHTS assay to identify small molecule antagonists of the estrogen receptor alpha (ER-alpha) signaling pathway - cell viability counter screen (AID 743074; calls by dose curve;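 also: HEK293 cells carrying ER-alpha-UAS-bla reporter stimulated with 17beta-estradiol; nearly all actives have a fitted effect of over 45% in size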; also: potency is read from the fitted curve at half-maximal effect)
[13] = biological target: Estrogen receptor (Homo sapiens) (UniProt P03372); assay: qHTS assay to identify small molecule agonists of the estrogen receptor alpha (ER-alpha) signaling pathway (AID 743075; calls by dose curve;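 also: HEK293 GripTite cells with ER-alpha and UAS-driven beta-lactamase reporter; potency is read from the fitted curve at half-maximal effect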)
[14] = qHTS assay to identify small molecule antagonists of the thyroid receptor (TR) signaling pathway - cell viability counter screen (AID 743064); details: GH3.TRE-Luc viability, CellTiter-Fluor, 24 h; activity change, negative = cytotoxic: at 70.3 µM (top of the series) unless noted; also: potency is read from the fitted curve at half-maximal effect; nearly all actives have a fitted effect of over 50% in size
In short: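 Rat GH3 pituitary tumor cells stably expressing two TR response elements driving luciferase were plated, rested 4 h, then dosed with library compounds and T3 (1 nM final). After 23.5 h at 37 °C, CellTiter-Fluor was added for 30 min and fluorescence recorded.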

[15] = qHTS assay to identify small molecule antagonists of the estrogen receptor alpha (ER-alpha) signaling pathway using the BG1 cell line (AID 743080; calls by dose curve;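 also: BG1 cells stimulated with 17beta-estradiol alongside compound; potency is read from the fitted curve at half-maximal effect; nearly all actives have a fitted effect of over 25% in size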); details: BG1Luc4E2 ERE-luciferase antagonist mode, luminescence; activity change, negative = inhibition: at 70.3 µM (top of the series) unless noted
In short: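 BG1-Luc-4E2 cells (endogenous full-length ER-alpha, stable 4×ERE-luciferase) were starved 5 days in phenol-red-free medium with 10% charcoal-stripped FBS, plated 24 h, then given compound plus 17beta-estradiol for 21.5 h at 37 C; ONE-Glo luminescence read after 30 min.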

Aromatase (Homo sapiens) = Aromatase (Homo sapiens) (UniProt P11511); assay: qHTS assay to identify aromatase inhibitors (AID 743083); details: MCF-7 aro ERE, testosterone-driven ERE luciferase, 24 h; activity, negative = inhibition: at 70.3 µM (top of the series); also: potency is read from the fitted curve at half-maximal effect; nearly all actives have a fitted effect of over 55% in size
[16] = biological target: Androgen receptor (Homo sapiens) (UniProt P10275); assay: qHTS assay to identify small molecule agonists of the androgen receptor (AR) signaling pathway (AID 743036; active = well fitted activation curve with a large enough effect in the signal ratio in the repeat runs, with a control signal flat, not every such curve was filed as active; inconclusive = weak or mixed curves, or effect the other way; inactive = no such curve, though single readings can be large or run the other way; the % refers to the signal ratio; also: potency is read from the fitted curve at half-maximal effect); details: HEK293 AR-UAS-bla GripTite, beta-lactamase FRET ratio, 16 h; activation: at 62.4 µM (top of the series) unless noted
In short: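 Quantitative HTS of the Tox21 10K library in HEK293 cells bearing a stably integrated UAS-controlled beta-lactamase reporter. Compound exposure lasted 16 h at 37C. Reporter activity was detected by FRET substrate fluorescence after 2 h at room temperature.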
Tags tell the direction and shape of the fitted curve or compound fluorescence and quenching.

UniProt P03372, sequence (P03372 whole entry, looked up): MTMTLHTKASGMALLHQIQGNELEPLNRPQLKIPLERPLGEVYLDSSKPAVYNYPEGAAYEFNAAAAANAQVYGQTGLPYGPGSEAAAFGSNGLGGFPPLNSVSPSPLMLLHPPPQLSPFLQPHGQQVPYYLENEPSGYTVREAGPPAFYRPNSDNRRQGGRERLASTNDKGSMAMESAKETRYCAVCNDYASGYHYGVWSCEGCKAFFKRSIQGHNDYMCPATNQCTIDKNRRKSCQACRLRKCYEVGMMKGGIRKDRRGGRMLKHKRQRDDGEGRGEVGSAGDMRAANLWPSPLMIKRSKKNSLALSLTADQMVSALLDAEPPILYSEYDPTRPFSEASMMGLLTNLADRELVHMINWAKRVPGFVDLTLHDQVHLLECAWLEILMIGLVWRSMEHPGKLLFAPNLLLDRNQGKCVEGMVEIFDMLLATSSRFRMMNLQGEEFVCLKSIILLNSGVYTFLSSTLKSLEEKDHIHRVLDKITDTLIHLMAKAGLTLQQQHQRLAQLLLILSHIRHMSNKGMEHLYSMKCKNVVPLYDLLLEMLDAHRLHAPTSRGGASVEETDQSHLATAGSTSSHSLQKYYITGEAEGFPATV
UniProt P10275, sequence (P10275 whole entry, looked up): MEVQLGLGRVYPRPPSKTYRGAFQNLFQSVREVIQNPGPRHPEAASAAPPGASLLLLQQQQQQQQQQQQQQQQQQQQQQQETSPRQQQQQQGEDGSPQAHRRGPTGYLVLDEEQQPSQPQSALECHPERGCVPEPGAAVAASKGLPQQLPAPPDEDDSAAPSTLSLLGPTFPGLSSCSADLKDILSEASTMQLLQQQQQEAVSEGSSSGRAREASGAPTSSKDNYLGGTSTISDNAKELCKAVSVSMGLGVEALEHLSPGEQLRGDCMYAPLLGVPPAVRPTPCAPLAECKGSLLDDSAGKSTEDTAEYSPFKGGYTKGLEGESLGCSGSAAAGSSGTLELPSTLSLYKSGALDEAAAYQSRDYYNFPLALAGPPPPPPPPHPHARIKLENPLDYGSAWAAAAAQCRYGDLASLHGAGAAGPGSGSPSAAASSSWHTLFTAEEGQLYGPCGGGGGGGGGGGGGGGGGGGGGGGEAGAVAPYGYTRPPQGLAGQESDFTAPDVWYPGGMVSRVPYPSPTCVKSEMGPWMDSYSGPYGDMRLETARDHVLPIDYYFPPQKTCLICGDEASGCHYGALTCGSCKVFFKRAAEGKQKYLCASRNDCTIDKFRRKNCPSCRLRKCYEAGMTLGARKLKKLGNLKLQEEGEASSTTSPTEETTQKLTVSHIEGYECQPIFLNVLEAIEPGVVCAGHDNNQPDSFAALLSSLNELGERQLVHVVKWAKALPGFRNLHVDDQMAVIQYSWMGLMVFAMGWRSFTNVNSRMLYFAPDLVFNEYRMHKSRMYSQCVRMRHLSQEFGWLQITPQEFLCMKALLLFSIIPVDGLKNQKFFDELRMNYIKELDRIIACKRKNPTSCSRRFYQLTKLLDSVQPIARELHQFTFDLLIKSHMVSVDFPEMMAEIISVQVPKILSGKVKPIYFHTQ
UniProt P11511, sequence (P11511 whole entry, looked up): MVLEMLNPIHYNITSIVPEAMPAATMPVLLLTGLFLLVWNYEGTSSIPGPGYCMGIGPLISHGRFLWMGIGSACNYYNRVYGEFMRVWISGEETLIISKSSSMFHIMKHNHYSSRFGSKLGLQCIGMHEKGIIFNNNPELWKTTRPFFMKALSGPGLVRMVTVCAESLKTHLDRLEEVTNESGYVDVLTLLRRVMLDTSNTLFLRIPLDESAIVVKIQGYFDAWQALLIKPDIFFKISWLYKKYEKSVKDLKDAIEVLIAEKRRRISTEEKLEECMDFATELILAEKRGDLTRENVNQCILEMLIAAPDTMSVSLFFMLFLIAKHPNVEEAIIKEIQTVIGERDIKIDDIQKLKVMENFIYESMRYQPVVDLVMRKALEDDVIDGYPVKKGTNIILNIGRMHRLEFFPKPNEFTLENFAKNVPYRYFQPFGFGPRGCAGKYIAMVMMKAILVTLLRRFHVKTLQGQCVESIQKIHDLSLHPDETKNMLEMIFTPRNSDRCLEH

Question: For CCOc1ccc(Cc2nccc3cc(OCC)c(OCC)cc23)cc1OCC, which Potency [1] is on record?
Answer: active: 4.03 µM

Question: What about the Potency [2] of the same compound?
Answer: inconclusive: 0.0018 µM [cytotoxic, full curve, poor fit]

Question: What about the Potency [3] of the same compound?
Answer: inactive

Question: And the Potency [4]?
Answer: inconclusive: 12.7 µM [inhibitor, single point]

Question: And the Potency [5]?
Answer: inconclusive: 9.02 µM [inhibitor, partial curve]

Question: What about the Potency [6] of the same compound?
Answer: inconclusive: 2.29 µM [activator, full curve]

Question: What about the Potency [7] of the same compound?
Answer: inconclusive: 11.4 µM [inhibitor, partial curve]

Question: And the Potency [8]?
Answer: inconclusive: 4.03 µM [cytotoxic, partial curve, poor fit]

Question: What does the source list for CCCCOCCOCCO?
Answer: activity change, negative = cytotoxicity [1]: inconclusive: -2.38% [at 95 µM]; Potency [9]: inactive; Potency [10]: inactive; Potency [11]: inactive; Potency [12]: inactive; Potency [13]: inconclusive: 6.19 µM [falling, full curve]; activation [7]: inconclusive: -4.83% [phenotype inactive] [at 95 µM]

Question: Which results are given for CC[C@@]1(O)C(=O)OCc2c1cc1n(c2=O)Cc2cc3c(CN(C)C)c(O)ccc3nc2-1?
Answer: Potency [1]: active: 1.33 µM; Potency [2]: inconclusive: 1.9 µM [cytotoxic, full curve, poor fit]; Potency [10]: inconclusive: 24.8 µM [rising, partial curve]; Potency [14]: inconclusive: 26.6 µM [rising, partial curve]; Potency [5]: active: 2.37 µM; Potency [11]: inactive; Potency [6]: active: 12 µM [inconclusive]; Potency [7]: inconclusive: 3.35 µM [inhibitor, full curve]; Potency [15]: active: 7.5 µM; Potency [8]: inconclusive: 29.8 µM [rising, partial curve]; Potency (Aromatase (Homo sapiens)): active: 5.31 µM

Question: With CC(=O)Oc1ccc(C2(c3ccc(OC(C)=O)cc3)C(=O)Nc3ccccc32)cc1 as the compound, how does the Potency [1] read?
Answer: inconclusive: 33.5 µM [cytotoxic] and inconclusive: 33.5 µM [cytotoxic, single point]

Question: And the Potency [9]?
Answer: inconclusive: 33.5 µM [cytotoxic, single point]

Question: What about the Potency [10] of the same compound?
Answer: inconclusive: 473 nM [cytotoxic, full curve] and inconclusive: 376 nM [cytotoxic]

Question: And the Potency [5]?
Answer: inconclusive: 29.8 µM [inhibitor] and inconclusive: 33.5 µM [inhibitor, single point]

Question: And the Potency [6]?
Answer: inactive

Question: And the Potency [12]?
Answer: inconclusive: 9.52 µM [cytotoxic, single point]

Question: What about the Potency [7] of the same compound?
Answer: inconclusive: 188 nM [inhibitor, full curve] and inconclusive: 266 nM [inhibitor, full curve]

Question: What about the Potency [15] of the same compound?
Answer: inconclusive: 668 nM [falling, full curve] and inconclusive: 750 nM [falling, full curve]

Question: And the Potency [8]?
Answer: active: 841 nM and active: 1.19 µM

Question: Which Potency [1] does the source give for c1ccc2cc(Nc3ccc(Nc4ccc5ccccc5c4)cc3)ccc2c1 here?
Answer: inactive

Question: And the Potency [2]?
Answer: inconclusive: 24.7 µM [cytotoxic, partial curve, poor fit]

Question: What about the activity change, negative = inhibition [3] of the same compound?
Answer: inconclusive: -25.5% [at 78.9 µM]

Question: And the Potency [16]?
Answer: inconclusive: 3.91 µM [activator, full curve] and inconclusive: 49 µM [activator, partial curve]

Question: And the Potency [14]?
Answer: inconclusive: 6.15 µM [rising, single point]

Question: What about the Potency [5] of the same compound?
Answer: inactive

Question: With O=S(=O)(O)c1ccc(O)cc1 as the compound, how does the Potency [1] read?
Answer: inconclusive: 33.5 µM [cytotoxic, partial curve]

Question: What about the Potency [9] of the same compound?
Answer: inconclusive: 33.5 µM [cytotoxic, partial curve, poor fit]

Question: What about the activity change, negative = cytotoxicity [2] of the same compound?
Answer: inconclusive: -31.3% [cytotoxic]

Question: What about the Potency [13] of the same compound?
Answer: inconclusive: 23.9 µM [activator]

Question: What about the activation [7] of the same compound?
Answer: inconclusive: 10.3% [phenotype inactive]

Question: Which Potency [1] does the source give for CCCCCCCCCCCCCCCC[N+](C)(C)CC here?
Answer: active: 376 nM and active: 866 nM

Question: What about the Potency [9] of the same compound?
Answer: active: 473 nM and active: 866 nM

Question: And the Potency [10]?
Answer: active: 18.8 µM and active: 43.4 µM

Question: What about the Potency [14] of the same compound?
Answer: active: 5.96 µM and active: 15.4 µM

Question: What about the Potency [5] of the same compound?
Answer: active: 4.22 µM and active: 6.13 µM

Question: And the Potency [11]?
Answer: inconclusive: 6.88 µM [inhibitor, partial curve, poor fit]

Question: What about the activation [11] of the same compound?
Answer: inconclusive: -8.66% [phenotype inactive]

Question: What about the Potency [12] of the same compound?
Answer: active: 19 µM and active: 55.1 µM

Question: And the Potency [13]?
Answer: inconclusive: 55.1 µM [cytotoxic, single point]

Question: What about the Potency [7] of the same compound?
Answer: inconclusive: 10.6 µM [inhibitor, partial curve] and inconclusive: 34.5 µM [inhibitor, partial curve]

Question: And the Potency [15]?
Answer: inconclusive: 23.7 µM [falling, partial curve] and inconclusive: 54.6 µM [falling, partial curve]

Question: What about the Potency [8] of the same compound?
Answer: inconclusive: 29.8 µM [cytotoxic, single point] and active: 54.6 µM

Question: What does the source list for Cc1ccccc1N=Nc1ccc(N=Nc2c(O)ccc3ccccc23)c(C)c1?
Answer: Potency [1]: inconclusive: 33.5 µM [cytotoxic, single point]; Potency [9]: inconclusive: 33.5 µM [cytotoxic, single point]; Potency [2]: inactive; Potency [13]: active: 10.7 µM [inconclusive]; Potency [7]: active: 8.41 µM; Potency [8]: inconclusive: 5.96 µM [cytotoxic, full curve]
